Assay results taken from paper PMC6919601, “Identification of Plasmodium dipeptidyl aminopeptidase allosteric inhibitors by high throughput screening” (PLoS ONE, 2019).
Out of some 110,000 compounds screened, about 230 (0.21%) showed an effect of 50% or more. This is one part of the list.

target: DPAP1 (Plasmodium falciparum, UniProt Q8IIJ9); assay: primary screen, percent inhibition; read by cleavage of a fluorogenic dipeptide substrate; higher = more effect of the substance; parameters: species or system P. falciparum D10 trophozoite lysates; single well
Sequence (Q8IIJ9 whole entry, looked up): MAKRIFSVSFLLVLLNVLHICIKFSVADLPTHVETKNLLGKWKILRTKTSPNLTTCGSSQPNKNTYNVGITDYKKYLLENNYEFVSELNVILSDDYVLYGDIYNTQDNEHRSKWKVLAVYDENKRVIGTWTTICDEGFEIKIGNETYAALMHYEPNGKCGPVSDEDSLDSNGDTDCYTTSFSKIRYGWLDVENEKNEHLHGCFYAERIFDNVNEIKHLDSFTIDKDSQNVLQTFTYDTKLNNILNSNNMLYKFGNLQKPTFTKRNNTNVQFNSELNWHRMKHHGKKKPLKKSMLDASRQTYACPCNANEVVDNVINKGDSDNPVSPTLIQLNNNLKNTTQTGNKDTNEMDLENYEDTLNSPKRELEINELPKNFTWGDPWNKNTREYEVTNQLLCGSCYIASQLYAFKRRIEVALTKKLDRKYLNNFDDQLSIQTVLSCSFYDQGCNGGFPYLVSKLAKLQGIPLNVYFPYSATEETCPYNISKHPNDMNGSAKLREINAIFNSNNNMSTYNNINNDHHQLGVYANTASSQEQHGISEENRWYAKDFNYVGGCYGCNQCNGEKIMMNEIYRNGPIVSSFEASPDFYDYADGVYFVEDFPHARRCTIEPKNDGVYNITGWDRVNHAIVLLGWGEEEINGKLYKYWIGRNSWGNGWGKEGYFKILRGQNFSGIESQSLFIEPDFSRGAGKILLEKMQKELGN
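Also: 30 min substrate incubation versus DMSO and 10 µM JCP410 controls.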

Going from `CSC(=O)NC12CC3CC(C1)CC(C(=O)O)(C3)C2` to `CC(NC(N)=O)C12CC3CC(CC(C3)C1)C2` (stereo not drawn), the “% Inhibition @ 10 uM” value falls from 0.215% to -7.55%.

Compared with `COc1ccc(NC(=O)c2ccc(C(=O)Nc3ccc(OC)cc3OC)nc2)c(OC)c1`, `COc1ccc(NC(=O)c2cnccn2)c(OC)c1` is lower in “% Inhibition @ 10 uM” value: 5.15% for the first, 0.316% for the second.

Going from `CCN(CC)C(=O)Cn1cc(C=C2C(=O)N(C)C(=O)N(C)C2=O)c2ccccc21` to `CCOc1cc(/C=C2/SC(=O)N(CC(=O)Nc3ccccc3)C2=O)ccc1O`, the “% Inhibition @ 10 uM” value rises from -1.26% to 5.44%.

Going from `COc1cccc(C2C(C#N)=C(N)OC3=C2C(=O)CC(C)(C)C3)c1OC` (stereo not drawn) to `COc1ccc(OC)c(C2C(C#N)=C(N)Oc3[nH]nc(-c4ccccc4)c32)c1` (stereo not drawn), the “% Inhibition @ 10 uM” value falls from 1.37% to -2.24%.

First: COc1cccc(-n2c(/C=C/c3ccc(O)cc3)nc3ccccc3c2=O)c1
Second: N#CC1=C(N)Oc2cc(N)ccc2C1c1ccc(OCc2ccccc2)cc1 (stereo not drawn)
The “% Inhibition @ 10 uM” value of the first is lower: -0.865% for the first, 1.37% for the second.

First: O=C(O)C1Nc2ccc3ccccc3c2C2C=CCC12 (stereo not drawn)
Second: Nc1ccc2c(c1)C1C=CCC1C(c1ccc(Cl)cc1Cl)N2 (stereo not drawn)
The “% Inhibition @ 10 uM” value of the first is higher: 14.8% for the first, 2.16% for the second.

Going from `Cc1ccc(-n2nnc3c(=O)n(CC(=O)NC4CCCC4)cnc32)cc1` to `COc1cccc(-n2nnc3c(=O)n(CC(=O)NCc4ccc5c(c4)OCO5)cnc32)c1`, the “% Inhibition @ 10 uM” value rises from -9.69% to -5.79%.

Going from `Cc1nc2ccc(S(=O)(=O)NC(CC(C)C)C(=O)N3CCCCCC3)cc2s1` (stereo not drawn) to `Cc1ccc(C(=O)N/C(=C/c2cccnc2)C(=O)N2CCCCCC2)cc1`, the “% Inhibition @ 10 uM” value rises from -3.33% to 4.07%.

First: C=C(C)CN(CC)Cc1ccc([N+](=O)[O-])s1
Second: CCN(Cc1ccccc1)Cc1cc(Cl)ccc1O
The “% Inhibition @ 10 uM” value of the first is lower: -3.57% for the first, 3.15% for the second.

Going from `Fc1ccccc1NCn1cnc2ccccc21` to `Fc1ccccc1CNCCc1c[nH]c2ccccc12`, the “% Inhibition @ 10 uM” value rises from -3.52% to 1.63%.

Compared with `CCC[C@H](NC(=O)C1(NC(=O)c2ccc([N+](=O)[O-])cc2)CCCCC1)C(=O)c1nc2ccccc2o1`, `COc1ccccc1NC(=O)c1cnc(Nc2nc3ccccc3o2)nc1C` is lower in “% Inhibition @ 10 uM” value: 1.7% for the first, -4.12% for the second.

Going from `Cc1nc2sccn2c(=O)c1S(=O)(=O)Nc1ccc(Br)cn1` to `Cc1cccc(NS(=O)(=O)c2ccccc2)n1`, the “% Inhibition @ 10 uM” value falls from -1.68% to -3.56%.

Compared with `C/C=C1/N=C(S)NN=C1CC`, `Cc1[nH]c2ccccc2c1Cc1nnc(S)n1C` is lower in “% Inhibition @ 10 uM” value: 18.9% for the first, 3.93% for the second.

First: COc1ccccc1-n1c(C)cc(/C=C2/C(=N)N3C(c4ccccc4)=CSC3=NC2=O)c1C
Second: CC1=CSC2=NC(=O)/C(=C\c3coc4ccccc4c3=O)C(=N)N12
The “% Inhibition @ 10 uM” value of the first is lower: 0.351% for the first, 2.74% for the second.

Going from `Cc1ccc(OCC(=O)Nc2ccc(F)cc2)cc1` to `COc1ccc(NC(=O)c2ccoc2C)cc1`, the “% Inhibition @ 10 uM” value rises from 5.29% to 5.63%.

Compared with `Cn1nc(-c2ccc(Cl)cc2)c2cc(C(=O)NCc3cccnc3)sc21`, `Cc1cccc(NC(=O)c2cccc(Cn3cc(Cl)cn3)c2)n1` is higher in “% Inhibition @ 10 uM” value: -7.14% for the first, 5.52% for the second.

First: c1ccc2c(c1)nnn2CN1CCCCCC1
Second: O=C(CSc1nnc(COc2ccccc2)o1)N1CCCC1
The “% Inhibition @ 10 uM” value of the first is lower: 1.76% for the first, 2.42% for the second.

First: Fc1ccc(N2CCN(Cc3ccccc3F)CC2)cc1
Second: Fc1ccccc1N1CCN(Cc2ccc(Cl)cc2Cl)CC1
The “% Inhibition @ 10 uM” value of the first is higher: -0.192% for the first, -4.5% for the second.

First: N#Cc1cc2c(=O)n3ccccc3nc2n(Cc2cccnc2)c1=N
Second: O=C(CCc1nnc2n(Cc3ccccc3)c(=O)c3ccccc3n12)N1CCN(c2ncccn2)CC1
The “% Inhibition @ 10 uM” value of the first is higher: 1.97% for the first, -2.42% for the second.

Going from `CS(=O)(=O)N(CC(=O)N1CCc2ccccc2C1)c1cccc(Br)c1` to `CS(=O)(=O)N(CC(=O)NCc1ccncc1)c1cccc2ccccc12`, the “% Inhibition @ 10 uM” value falls from 1.65% to -1.38%.

Going from `O=C(NCCc1ccccc1)C(=O)c1c(O)[nH]c2ccccc12` to `Cc1ccccc1C(=O)NCCc1ccccc1`, the “% Inhibition @ 10 uM” value rises from -3.46% to -3.27%.

First: O=C(Cn1cccc1)N1CCN(Cc2ccccc2)CC1
Second: COc1ccc(C(=O)N2CCN(Cc3ccccc3Br)CC2)cc1
The “% Inhibition @ 10 uM” value of the first is higher: 2.6% for the first, -12.3% for the second.

Compared with `CCOCCCNC(=O)C1CCCN(c2nnc(C)c3c(C)n(-c4ccc(C)cc4)nc23)C1` (stereo not drawn), `Cc1nnc(N2CCCC(C(=O)NCCN3CCOCC3)C2)c2nn(-c3ccccc3)c(C)c12` (stereo not drawn) is higher in “% Inhibition @ 10 uM” value: -3.05% for the first, -0.518% for the second.

Compared with `Cc1ccc2[nH]c3c(c2c1)CCCC3O` (stereo not drawn), `Cc1ccc2nc(O)c3cc(C(=O)NCC4CCCO4)sc3c2c1` (stereo not drawn) is higher in “% Inhibition @ 10 uM” value: -1.69% for the first, 5.12% for the second.

Going from `Cc1nc2ccccc2c(O)c1CN1CC(C)OC(C)C1` (stereo not drawn) to `CCC(C(=O)NC1CCCCC1C)n1sc2ccccc2c1=O` (stereo not drawn), the “% Inhibition @ 10 uM” value rises from -2.3% to 1.15%.

Compared with `COc1nc(NC(C)(C)C)nc(OC)n1`, `CC(C)(C)Nc1nc(Cl)nc(NCc2cccnc2)n1` is lower in “% Inhibition @ 10 uM” value: -0.693% for the first, -3.14% for the second.

Compared with `CCCN(CCC)S(=O)(=O)c1ccc(NC(=O)C(C)(C)C)cc1`, `Cc1oc(-c2cccc(Cl)c2)nc1CS(=O)(=O)CC(=O)NCC(C)c1ccccc1` (stereo not drawn) is higher in “% Inhibition @ 10 uM” value: -0.496% for the first, 7.96% for the second.

First: Cc1cc(Br)c(S(=O)(=O)C(C)(C)C)c(Br)c1
Second: CC(C)(C)c1cc(SCCC#N)cc(C(C)(C)C)c1O
The “% Inhibition @ 10 uM” value of the first is higher: 1.8% for the first, -5.35% for the second.

Going from `Nc1c(C(=O)NCCc2ccccc2Cl)sc2nc(-c3ccncc3)ccc12` to `CN(CCCNc1cnnc2c(Cl)cccc12)Cc1ccccc1`, the “% Inhibition @ 10 uM” value falls from 0.0719% to -4.4%.

Compared with `COC(=O)c1ccc(-c2ccco2)n1Cc1nc(-c2ccccc2F)oc1C`, `COCCNC(=O)c1ccc2nc(-c3ccco3)c(-c3ccco3)nc2c1` is lower in “% Inhibition @ 10 uM” value: 2.84% for the first, 1.61% for the second.

First: Cc1cc(OCC(=O)NCc2ccc3c(c2)OCO3)cc(C)c1Cl
Second: CCc1ccc2oc(C(=O)NCc3ccc4c(c3)OCO4)cc(=O)c2c1
The “% Inhibition @ 10 uM” value of the first is lower: -12% for the first, -5.08% for the second.

Going from `Cc1ccnc(NC(=O)c2cn(C3CCCC3)c(=O)c3c2c2ccccc2n3C)c1` to `COc1ccc2ncc(S(=O)(=O)c3ccccc3)c(N3CCCCC3C)c2c1` (stereo not drawn), the “% Inhibition @ 10 uM” value falls from -3.39% to -5.54%.

Compared with `COc1ccc(C2C3=C(O)CCCC3=Nc3[nH]nc(-c4ccccc4)c32)cc1` (stereo not drawn), `CCCCOc1ccc(-c2nc(/C=N/Cc3ccccc3)c(O)o2)cc1` is lower in “% Inhibition @ 10 uM” value: 0.244% for the first, -2.54% for the second.

Compared with `O=C(O)C1CCN(c2nc(-c3ccc(F)cc3)cs2)CC1`, `O=C(c1ccccc1)c1ccc(N2CCCC2)c(F)c1` is lower in “% Inhibition @ 10 uM” value: -0.185% for the first, -3.09% for the second.

Going from `CCOc1ccc(-c2cc(NC(=O)c3noc4c3CCCCC4)on2)cc1OCC` to `O=C(NCCc1ccccc1)c1noc2c1CCCCC2`, the “% Inhibition @ 10 uM” value falls from 2.42% to -3.12%.

Compared with `CCC1CCCCN1C1CCN(CCc2ccccc2)CC1` (stereo not drawn), `CSc1ccc(OC2CCN(Cc3ccccc3)CC2)cc1` is higher in “% Inhibition @ 10 uM” value: 0.565% for the first, 0.658% for the second.

Compared with `CCc1ccc(C(=O)CC2(O)C(=O)Nc3ccc(CC)cc32)cc1` (stereo not drawn), `O=C(Cn1c(NCCO)nc2ccccc21)c1ccc(-c2ccccc2)cc1` is lower in “% Inhibition @ 10 uM” value: 2.49% for the first, -6.02% for the second.

First: N#CC1C(=S)N=C2CCCCC2=C1c1cccs1 (stereo not drawn)
Second: CCN(CC)c1ncnc2sc3c(c12)CCCC3
The “% Inhibition @ 10 uM” value of the first is higher: 40.5% for the first, -5.05% for the second.

Going from `COc1cc(OC)cc(C(=O)Nc2ccccc2OC)c1` to `COc1cc(C(=O)NCCc2c(C)[nH]c3ccccc23)cc(OC)c1OC`, the “% Inhibition @ 10 uM” value falls from 4.42% to 1.72%.

First: Cc1ccc(C2=NS(=O)(=O)N(C)C(C(=O)Nc3cc(C)n(CC(=O)NCc4ccco4)n3)=C2)cc1
Second: CCOc1ccc(NC(=O)c2c(NC(=O)c3ccco3)sc3c2CCCC3)cc1
The “% Inhibition @ 10 uM” value of the first is lower: -2.84% for the first, 1.08% for the second.

Going from `CN(C)CCN(Cc1ccccc1)Cc1ccc(O)cc1` to `CN(C)CCCN1C(=O)CSC1c1ccccc1` (stereo not drawn), the “% Inhibition @ 10 uM” value rises from -4.14% to -3.77%.

Compared with `COC(=O)c1cc2c(s1)-c1ccccc1OC2`, `COCCN1C(=O)c2ccccc2C(C(=O)NCC2CCCO2)C1c1cccs1` (stereo not drawn) is lower in “% Inhibition @ 10 uM” value: 10.3% for the first, 3% for the second.

First: COc1ccc(C(=O)C2=C(O)C(=O)N(CCN3CCOCC3)C2c2cccnc2)cc1OC (stereo not drawn)
Second: COc1cc2c(cc1OC)C(C(=O)NC1CCCCC1)C(c1cccnc1)N(C)C2=O (stereo not drawn)
The “% Inhibition @ 10 uM” value of the first is lower: -7.19% for the first, 2.59% for the second.

Going from `COc1ccc2cc3c(N)nn(C(=O)CSc4ccncc4)c3nc2c1` to `COc1ccc2cc3cc(C(=O)N(C)C4CCCCC4)oc3nc2c1`, the “% Inhibition @ 10 uM” value falls from 1.38% to 0.208%.

Going from `Nc1c(C(=O)O)ccc2c1C(=O)c1ccccc1C2=O` to `Cc1ccccc1CC(CC(=O)O)C(=O)O` (stereo not drawn), the “% Inhibition @ 10 uM” value rises from 0.912% to 12.9%.

First: CCOC(=O)N1CCC(NC(c2ccccc2)c2ccccc2)CC1
Second: CC(C(=O)NCCN1CCCC1)(c1ccccc1)c1ccccc1
The “% Inhibition @ 10 uM” value of the first is higher: -1.5% for the first, -7.5% for the second.

First: O=C(CSc1ncccn1)NC(=O)c1ccccc1
Second: CC(=O)N1N=C(c2ccccc2)CC1c1ccccc1 (stereo not drawn)
The “% Inhibition @ 10 uM” value of the first is higher: 3.66% for the first, -1.86% for the second.

Compared with `COC1CCCCC1NC1CCCCCC1` (stereo not drawn), `CC(C)CCN1C(=O)c2ccccc2C1C(=O)NC1CCCCC1` (stereo not drawn) is higher in “% Inhibition @ 10 uM” value: -1.54% for the first, -0.519% for the second.

Compared with `FC(F)(F)c1cccc(-c2noc(-c3cccc(Br)c3)n2)c1`, `Cc1ccc(C(=O)/C=C/c2cccc(F)c2)o1` is lower in “% Inhibition @ 10 uM” value: 3.94% for the first, -5.5% for the second.

First: CCOC(=O)N1CCN(C(=O)c2ccc(CS(=O)c3cccc(C)c3)o2)CC1 (stereo not drawn)
Second: COc1ccc(CCNC(=O)CCc2nc3cccnc3n2Cc2cccs2)c(OC)c1OC
The “% Inhibition @ 10 uM” value of the first is higher: 1.22% for the first, -7.13% for the second.

Going from `CCC(CO)Nc1ncnc2c1cnn2-c1ccc(OC)cc1` (stereo not drawn) to `Cc1nc2sc(C(=O)c3ccc4c(c3)OCCO4)c(N)c2c(C)c1C`, the “% Inhibition @ 10 uM” value rises from -1.97% to 6.69%.

Going from `O=C(CCCSc1nc(O)c2c3c(sc2n1)CCCC3)NCCO` to `CN(C)CCN(C)Cc1ccsc1`, the “% Inhibition @ 10 uM” value rises from -1.08% to 3.47%.

For `c1ccc(CN2CCOCCOCCN(Cc3ccccc3)CCOCCOCC2)cc1`, the “% Inhibition @ 10 uM” value was -0.759%.
